Our source for the binding values is paper PMC6693284.

Sequences of proteins named here, by UniProt entry; tags and fusion partners are left off. A change or cut given only in a name is not applied to a line headed by its entry. A line that says so, or that is headed by a name, gives the form on record, which may keep a tag or linker. Residues count along the entry.
UniProt P40763: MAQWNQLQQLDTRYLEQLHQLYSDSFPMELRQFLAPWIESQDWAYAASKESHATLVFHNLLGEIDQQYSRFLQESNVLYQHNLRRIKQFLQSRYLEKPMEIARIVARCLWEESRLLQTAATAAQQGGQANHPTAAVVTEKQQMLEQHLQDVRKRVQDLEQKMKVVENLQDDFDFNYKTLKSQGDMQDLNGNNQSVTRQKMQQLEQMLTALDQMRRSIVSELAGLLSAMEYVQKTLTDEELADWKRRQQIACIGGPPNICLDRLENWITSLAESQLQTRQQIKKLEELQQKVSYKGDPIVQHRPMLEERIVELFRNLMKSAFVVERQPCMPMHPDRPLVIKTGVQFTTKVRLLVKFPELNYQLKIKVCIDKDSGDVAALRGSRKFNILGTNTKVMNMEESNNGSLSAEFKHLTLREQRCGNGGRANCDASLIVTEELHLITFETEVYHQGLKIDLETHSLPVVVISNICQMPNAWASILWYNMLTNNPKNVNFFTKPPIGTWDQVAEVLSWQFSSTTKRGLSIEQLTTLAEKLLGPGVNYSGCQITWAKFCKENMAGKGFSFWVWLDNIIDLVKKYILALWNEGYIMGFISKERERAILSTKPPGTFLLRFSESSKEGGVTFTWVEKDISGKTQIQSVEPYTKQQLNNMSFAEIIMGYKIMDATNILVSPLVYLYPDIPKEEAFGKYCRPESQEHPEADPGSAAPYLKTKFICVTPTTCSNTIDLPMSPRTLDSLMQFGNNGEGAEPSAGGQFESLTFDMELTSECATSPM
Flag-tagged STAT3: residues 1-769 of P40763
ERα-36 (endogenous) (human (endogenous in MDA-MB-231, MCF-7, MCF-10A)) (P03372-4, form named): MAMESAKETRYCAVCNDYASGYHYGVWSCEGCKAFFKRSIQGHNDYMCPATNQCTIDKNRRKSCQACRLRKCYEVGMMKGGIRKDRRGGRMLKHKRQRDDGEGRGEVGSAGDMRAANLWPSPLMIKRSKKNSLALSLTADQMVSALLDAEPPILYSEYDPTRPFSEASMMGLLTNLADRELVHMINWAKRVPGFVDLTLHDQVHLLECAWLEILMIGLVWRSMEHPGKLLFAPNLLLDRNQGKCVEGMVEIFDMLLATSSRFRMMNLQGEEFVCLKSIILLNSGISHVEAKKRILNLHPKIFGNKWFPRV
UniProt Q09472: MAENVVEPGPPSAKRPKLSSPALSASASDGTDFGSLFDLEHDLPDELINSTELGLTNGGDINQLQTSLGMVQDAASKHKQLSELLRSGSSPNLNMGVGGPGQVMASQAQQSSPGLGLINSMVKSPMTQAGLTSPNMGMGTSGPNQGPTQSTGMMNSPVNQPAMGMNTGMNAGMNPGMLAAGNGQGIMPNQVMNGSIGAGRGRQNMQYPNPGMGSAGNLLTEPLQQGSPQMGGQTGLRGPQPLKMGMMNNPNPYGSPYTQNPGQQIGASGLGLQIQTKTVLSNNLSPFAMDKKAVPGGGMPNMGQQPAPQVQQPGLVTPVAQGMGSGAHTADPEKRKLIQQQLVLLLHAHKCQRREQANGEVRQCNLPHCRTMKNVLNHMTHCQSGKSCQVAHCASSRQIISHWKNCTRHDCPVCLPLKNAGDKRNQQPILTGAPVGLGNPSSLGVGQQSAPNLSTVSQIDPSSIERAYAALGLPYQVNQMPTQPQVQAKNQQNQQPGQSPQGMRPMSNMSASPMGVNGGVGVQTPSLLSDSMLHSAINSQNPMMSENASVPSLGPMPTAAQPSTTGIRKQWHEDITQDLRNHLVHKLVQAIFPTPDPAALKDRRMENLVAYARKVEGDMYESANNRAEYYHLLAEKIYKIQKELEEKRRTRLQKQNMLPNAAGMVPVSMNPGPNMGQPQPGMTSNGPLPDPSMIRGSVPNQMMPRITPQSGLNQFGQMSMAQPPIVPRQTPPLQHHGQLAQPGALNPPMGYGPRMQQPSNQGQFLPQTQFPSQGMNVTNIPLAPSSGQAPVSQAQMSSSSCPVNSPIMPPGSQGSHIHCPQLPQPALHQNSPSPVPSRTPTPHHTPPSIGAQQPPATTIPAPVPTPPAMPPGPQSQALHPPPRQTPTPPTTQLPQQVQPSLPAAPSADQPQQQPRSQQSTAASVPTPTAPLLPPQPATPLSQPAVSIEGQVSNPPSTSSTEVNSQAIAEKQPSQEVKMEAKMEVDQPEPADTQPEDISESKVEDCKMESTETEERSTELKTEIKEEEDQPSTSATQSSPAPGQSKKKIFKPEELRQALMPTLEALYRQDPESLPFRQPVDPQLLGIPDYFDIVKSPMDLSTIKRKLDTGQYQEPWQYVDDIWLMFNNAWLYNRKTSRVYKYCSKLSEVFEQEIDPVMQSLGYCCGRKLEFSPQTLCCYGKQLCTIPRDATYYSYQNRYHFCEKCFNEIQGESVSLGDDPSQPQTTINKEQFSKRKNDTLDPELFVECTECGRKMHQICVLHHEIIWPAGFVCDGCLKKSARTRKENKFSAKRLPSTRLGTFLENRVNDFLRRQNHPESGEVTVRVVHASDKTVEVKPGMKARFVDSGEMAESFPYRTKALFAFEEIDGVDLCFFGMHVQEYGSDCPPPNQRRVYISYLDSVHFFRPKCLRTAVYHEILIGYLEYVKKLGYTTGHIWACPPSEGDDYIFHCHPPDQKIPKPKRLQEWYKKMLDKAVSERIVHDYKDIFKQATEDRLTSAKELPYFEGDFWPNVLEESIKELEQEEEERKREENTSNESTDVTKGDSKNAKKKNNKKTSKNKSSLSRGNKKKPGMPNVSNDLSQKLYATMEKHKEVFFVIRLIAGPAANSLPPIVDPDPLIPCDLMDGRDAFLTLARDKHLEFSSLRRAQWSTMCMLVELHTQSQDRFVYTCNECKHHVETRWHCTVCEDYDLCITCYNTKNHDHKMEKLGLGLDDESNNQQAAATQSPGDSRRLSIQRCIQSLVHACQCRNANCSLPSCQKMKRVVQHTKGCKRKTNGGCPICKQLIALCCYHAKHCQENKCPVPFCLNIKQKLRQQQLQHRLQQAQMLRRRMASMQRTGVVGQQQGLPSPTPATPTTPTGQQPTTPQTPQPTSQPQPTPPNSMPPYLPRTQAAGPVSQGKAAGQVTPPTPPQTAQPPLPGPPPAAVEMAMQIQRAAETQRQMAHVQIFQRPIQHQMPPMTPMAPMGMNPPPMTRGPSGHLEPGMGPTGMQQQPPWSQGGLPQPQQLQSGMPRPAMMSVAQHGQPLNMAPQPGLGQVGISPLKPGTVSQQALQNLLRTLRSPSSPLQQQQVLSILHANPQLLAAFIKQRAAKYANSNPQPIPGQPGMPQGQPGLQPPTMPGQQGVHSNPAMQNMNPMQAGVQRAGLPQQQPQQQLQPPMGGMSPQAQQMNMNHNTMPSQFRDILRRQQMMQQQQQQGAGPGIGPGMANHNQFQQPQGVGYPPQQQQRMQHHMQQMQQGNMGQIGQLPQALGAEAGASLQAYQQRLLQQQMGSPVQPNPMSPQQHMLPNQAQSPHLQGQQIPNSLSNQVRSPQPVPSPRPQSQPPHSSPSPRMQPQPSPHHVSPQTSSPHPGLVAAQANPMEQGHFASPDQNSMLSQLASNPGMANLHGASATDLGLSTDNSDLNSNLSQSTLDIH

Results are given in words; binding and its absence hold for the method and conditions named. In cells and extracts the contact can be indirect. Some results given as binding are weak or reduced against the parent protein; the word gives no strength.

In assay [1] the target is Flag-tagged STAT3 (human) (UniProt P40763). As to the kind of experiment: co-IP; MDA-MB-231 cells cotransfected with Myc-ERα-36 and Flag-STAT3 (or deletion mutants); lysates 48 h after transfection; precipitated with Flag or Myc antibody, blotted with the other.
Assay [2] deals with ERα-36 (endogenous) (human (endogenous in MDA-MB-231, MCF-7, MCF-10A)) (UniProt P03372). As to the kind of experiment: co-IP; MDA-MB-231, MCF-7 and MCF-10A cell lysates precipitated with an anti-ERα antibody and probed with an anti-STAT3 antibody.
Assay [3] shares this target. The assay is described as follows: co-IP; quiescent MDA-MB-231 cells with and without IL-6 for the indicated times; extracts precipitated with anti-ERα-36, blotted for STAT3, then pSTAT3 and acetyl-STAT3.
For assay [4] the target is unchanged. The assay is described as follows: co-IP; quiescent MDA-MB-231 cells with and without IL-6 in the presence of TAM (10 μM) for 1 h; precipitated with anti-ERα-36, blotted with anti-p300.
The target is the same in assay [5]. As to the kind of experiment: co-IP; MDA-MB-231 cells transduced with Ad-dnERα-36 (control Ad-GFP), quiesced, treated with IL-6; precipitated with anti-ERα-36, blotted with anti-p300.
Assay [6] shares this target. The assay is described as follows: co-IP; quiescent MDA-MB-231 cells with and without IL-6 for the indicated times; extracts precipitated with anti-ERα-36 or anti-p300, blotted with anti-p300 and/or anti-ERα-36.

Consider “Myc-tagged ERα-36 (from UniProt P03372-4 1-310)”, for which, in assay [1], the binding result is given as “binds”. For “STAT3 (endogenous) (from UniProt P40763 1-770)”, the binding result in assay [2] and in assay [3] was “binds” in each case. Take “acetylated STAT3 (Lys-685), endogenous (from UniProt P40763 1-770)”: the binding result in assay [3] is “binds”.

Take “p300 (endogenous) (from UniProt Q09472 1-2414)”: the binding result in assay [4] is on record as “no binding (condition: with TAM (10 μM))”; in assay [5], “no binding (condition: cells transduced with Ad-dnERα-36)”; in assay [6], “binds”.

Consider “phosphorylated STAT3 (Tyr-705), endogenous (from UniProt P40763 1-770)”, for which the binding result in assay [3] is reported as “binds”.
